From the RNAGym collection of RNA variant scans (doi:10.7554/elife.90254)
The source gives no read counts; variants with many changes may rest on few reads.

B1: LINE1-mini (parent)
chain: GGCAGAGCUCAACACAGCGUGGCAAAGUGGCUGUGGCUAGACUGCC

Variants of: B1
Experiment: self-cleavage, relative activity (ratio to wild type); higher = more cleavage; in vitro, sequencing; the parent is a self-cleaving ribozyme

Variant | self-cleavage
GGCCGAGCUCAAGACAGCGUGGCAAGGUGGCUGUGGCUAGACUGCC [A4C C13G A26G] | 0.1
GGCCGAGCUCAACAUAGCGUGGGAAAGUGGCUGUGACUAGACUGCC [A4C C15U C23G G36A] | 0.02
GGCCGAGCUCAACACAGCGUGGCAUUGUGGCUGUGGUUAGACUGCC [A4C A25U A26U C37U] | 0.52
GGCCGAGCUUAACACAGCGUGGCAAAGUGUCUGUGGCUAGACUGCC [A4C C10U G30U] | 0.02
GGCCGAGCUCAACAGAGCGUAGCGAAGUGGCUGUGGCAAGACUGCC [A4C C15G G21A A24G U38A] | 0.05
GGCCGAGCUGAACACAGCGUGGCCAAGUGGCUGUGGCUAGCCUGUC [A4C C10G A24C A41C C45U] | 0.01
GGCCGAGCUCAACACAGAGUGGCAAAGUGGCUGUCGCUAGACUGCC [A4C C18A G35C] | 0.02
GGCCGAGCUCAACAAAGCGUGGCAAAGUGGCUGUGGCUGGACUGCC [A4C C15A A39G] | 0.15
GGCCGAGCUCAACAAAGCGUGGCAAAGUGGCUGUGGCUCGACUGCC [A4C C15A A39C] | 0
GGCCGAGCUGAACACAGCGUGGCAAAGUGGCUGUGGCUAUACUGCC [A4C C10G G40U] | 0.04
GGCCGAGCUAAACACAGCGUGGCAAAGUGCCUGUGGCUAUACUGCC [A4C C10A G30C G40U] | 0
GGCCGAGCUCAACAAAGCGUGGCAAAGUGGCUGUGGCUAGACUGCU [A4C C15A C46U] | 0.08
GGCCGAGAUCAACACAGCGUAGCAAAGUGGCUGUCGCUAGACUGCC [A4C C8A G21A G35C] | 0.04
GGCCGAGCUGAACACAGCGUGGCAAAGUGGCUGUGGCUCGACUGCC [A4C C10G A39C] | 0.01
GGCCGAGGUUAACACAGCGCGGCAAAGUGGCUGUGGCUAGACUGAC [A4C C8G C10U U20C C45A] | 0.01
GGCCGAGGUCAACACAGCUUGGCAAAGUGGCUGUGGCUAGACUGCC [A4C C8G G19U] | 0.04
GGCCGAGCUAAACAUUGCGUCGCAAAGUGGCUGGGGCUAGACUGCC [A4C C10A C15U A16U G21C U34G] | 0
GGCCGAGCUCAACAUAGCUUGGCAAAGUGGCCGUGGUUAGACUGCC [A4C C15U G19U U32C C37U] | 0.13
GGCCGAGCUCAACAGAGCGUGGCAAAGUGGCUGUGGCUAGAGUGCC [A4C C15G C42G] | 0.01

Variant | self-cleavage
GGCCGAGCUCAACACAGCGUGGCAAAGUGGCUGUGGCUGGAAUGCC [A4C A39G C42A] | 0.18
GGCCGAGCUCAACACAGCGUGGCGAAGUGGCUGUGGCUAGACUGCU [A4C A24G C46U] | 0.14
GGCCGAGCUCAACACAGCGUGGCAGAGUGGCUGUGGCUAGAUUCCC [A4C A25G C42U G44C] | 0.03
GGCCGAGUUCAACACAGCGUGGCAAAGUGGCUGUCGCUAGACUGCC [A4C C8U G35C] | 0.06
GGCCGAGCUCAACACAGCGUGGCACAUUGGCUGUGGCUAGACUGCC [A4C A25C G27U] | 0.02
GGCCGAGCUGAACACAGCGUGUCAAAGUGGCUGUGGCUUGACGGCC [A4C C10G G22U A39U U43G] | 0
GGCCGAGGGCAACACAGCGUGGCAAAGUGGCGUGGGCUACACUGCC [A4C C8G U9G U32G G33U U34G G40C] | 0.02
GGCCGAGCUCAAUACAGCGUAGCAAAGUGGCUGUGGAAAGACAGCC [A4C C13U G21A C37A U38A U43A] | 0.66
GGCCGAGCUCAACACAGCGUGGCAAAGUGGCUGUGGCUCGACUGCA [A4C A39C C46A] | 0.09
GGCCGAGCUCAAAUCAGAGUGGCAAAGUGGCUGUGGCUAGACUGCC [A4C C13A A14U C18A] | 0.04
GGCCGAGUUCAACACAGGGUGGCAAAGUGGCUGUGGCUAGACUGCC [A4C C8U C18G] | 0.03
GGCCGAGCUCAACAAAGCGUGGCAAAGUGGCUGUGGCUAAACUGCC [A4C C15A G40A] | 0.11
GGCCGAGAUCAACACAGCGAGUCAAAGUGGCUGUGGCUAGACUCCC [A4C C8A U20A G22U G44C] | 0.1
GGCCGAGCUCAAAACAGCGUGGCACAGUGGCUAUGGCUAGACUGCC [A4C C13A A25C G33A] | 0.02
GGCCGAGCUGAACACAGCAUGGCAAACUGGCUGUGCGUAGACGGCC [A4C C10G G19A G27C G36C C37G U43G] | 0
GGCCGAGUUCAAUACAGCGUGACAAAGUGGCUGUGGCUAGACUGCC [A4C C8U C13U G22A] | 0.23
GGCCGAGAUCAACACAGAGUGGCAAAGUGGCUGUGGCUAGACUGCC [A4C C8A C18A] | 0.14
GGCCGAGCUCAACAAUGCGUGGGAAAGUGGCUGUGGUUAGACAGCC [A4C C15A A16U C23G C37U U43A] | 0.01
GGCCGAGCUCAACAGAGCGUGGCAAAGUGGCUGUGGCUAGUCUGCC [A4C C15G A41U] | 0.02

Variant | self-cleavage
GGCCGAGCUUAACACAGCGUGGCAAACUGGCAGUAGAGAGACUGCC [A4C C10U G27C U32A G35A C37A U38G] | 0.03
GGCCGAGCUCAAAACAGCGUGGCAAAGUGGCUGUGGCUAGACUGCA [A4C C13A C46A] | 0
GGCCGAGAUCAACUCAGCGUGGCAAAGUGUCUGUGGCUAGACUUCC [A4C C8A A14U G30U G44U] | 0.23
GGCCGAGCUCAAGACAACGUGGCAAAGUGGCUGUGGCUAGAUUGCC [A4C C13G G17A C42U] | 0.14
GGCCGAGCUGAACACAGCGUGGCAAAGGGGCUGUGGCUAGACUGCC [A4C C10G U28G] | 0.03
GGCCGAGUUCAUCACAGCGUGGCAAAGUGGCUGUGGCUAGACUGCC [A4C C8U A12U] | 0.01
GGCCGAGCUAAACACAGCGUGGCAAAGCGGCUGUGGCUAGACUGCC [A4C C10A U28C] | 0.02
GGCCGAGCUCAAAACAGCGUGGCAAAGUGGCUGUGGCUAGUCUGCC [A4C C13A A41U] | 0.04
GGCCGAGCUAAUCACAGCGUGGCAAAGUGCCUGUGGCUAGGCUGCC [A4C C10A A12U G30C A41G] | 0.03
GGCCGAGGUCAACACAGCGUGGCAAAGUGGAUGUGGCUAGAUUGCC [A4C C8G C31A C42U] | 0.24
GGCCGAGCUUAACACAGCGUGGCAUAGUGGCUGUGGCUAGACUGCC [A4C C10U A25U] | 0.01
GGCCGAGGUCAACACAGCGUGUCAAAGUGGCUGUGGCAAGACUGCC [A4C C8G G22U U38A] | 0
GGCCGAGCUCAACACAGCGUGGCAACGUGGCUAUGGCUGGACUGCC [A4C A26C G33A A39G] | 0.35
GGCCGAGCUCAACACAGCGUGGCAAUGCGUCAGUGGCUAGACAGCC [A4C A26U U28C G30U U32A U43A] | 0.03
GGCCGAGCUCAACAAAGCGUUGCAAAGCGGCUGUGGGUAGACUGCC [A4C C15A G21U U28C C37G] | 0.03
GGCCGAGCUCAAUACAGCGUGGCAAAGUGGCUGUGGCUAAACUGCC [A4C C13U G40A] | 0.11
GGCCGAGCUUAACACAGCGGGGCAAAGUGGCUGUGGCUAGACUGCC [A4C C10U U20G] | 0.01
GGCCGAGCUAAACACAGCGUGGCAAAGUUGCUGUGGCUAGACUGCC [A4C C10A G29U] | 0.01
